These results are taken from ChEMBL document CHEMBL1201862, “PubChem BioAssay data set” (2004).

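Test compounds were applied to cells in 96-well plates for 48 hours at 5 doses. The concentration for 50% growth inhibition is given as GI50.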 Activity calls are given as the source filed them. No stated cut-off is given here; in the data, active = GI50 up to about 1.1 µM and inactive = higher. A value given as a limit tells only on which side of the number the result lay.

The experiment concerns NCI-H322M. Briefly: NCI anticancer screen, dose series, 48 h.
Take `C(=N\c1ccc(-c2cc(-c3ccccc3)nc3ccc4ccccc4c23)cc1)/c1ccccc1`: the GI50 was inactive: 16.9 µM. As to `COc1cccc2[nH]c(-c3ccccn3)nc12`, the GI50 was inactive: > 100 µM. For the molecule `O=[N+]([O-])c1ccc2nc(O)c(/C=C(\O)c3ccccc3)nc2c1`, the GI50 is inactive: 8.71 µM.

Consider `CCCCSCc1nc2nc(Cl)c(Cl)nc2[nH]1`, for which the GI50 is inactive: 28.1 µM. The value for `CCCCc1ccc(Nc2nc(S)c3ncn(COCCO)c3n2)cc1` was inactive: 53.7 µM; that for `COc1cc(/C=C2\C[C@H]3[C@@H]4CCc5cc(O)ccc5[C@H]4CC[C@]3(C)C2=O)cc(OC)c1OC` was inactive: 6.18 µM; that for `O=C1c2ccccc2C(=O)N1c1ccc(Cc2ccc(N3C(=O)c4ccccc4C3=O)cc2)cc1` was inactive: > 100 µM. As for `O=C1NC(=O)C(c2c[nH]c3cc(Br)ccc23)=C1c1cnc[nH]1`, the GI50 is inactive: 35.6 µM.

As to `CC(=O)OC1CCN(C(=O)c2ccccc2)CC1CC1(c2cc3ccccc3[nH]2)OCCO1` (configuration not stated), the GI50 is inactive: > 100 µM.

Turning to `CN(/N=C/c1cccc2cccnc12)c1c([N+](=O)[O-])cc([N+](=O)[O-])cc1[N+](=O)[O-]`, the GI50 was inactive: > 100 µM. In the case of `Cc1cc(NS(=O)(=O)c2ccc(NC(=O)c3ccc4nc5ccccc5c(Nc5ccc(S(=O)(=O)N=C(N)N)cc5)c4c3)cc2)no1`, the GI50 is inactive: 24.3 µM. Turning to `COc1ccc(C(=O)Nc2ccc3oc(-c4ccccc4)nc3c2)cc1`, the GI50 was inactive: > 100 µM.

Turning to `C[C@]12CC/C(=N\O)C=C1CC[C@@H]1C2CC[C@@]2(C)C1CC[C@@H]2OC1CCCCO1` (some centres not stated), the GI50 is inactive: > 100 µM.

Turning to `O=c1[nH]nc(Cc2ccccc2)n1/N=C/c1c[nH]c2ccccc12`, the GI50 was inactive: > 100 µM. The value for `COCOc1cc(OC)ccc1C=O` was inactive: 47 µM.

As for `C(=N\CC/N=C/c1cccc2ccccc12)/c1cccc2ccccc12`, the GI50 is inactive: > 100 µM. On to `CC(=O)c1ccc(NCc2cc(O)ccc2O)cc1`, for which the GI50 is inactive: 22.8 µM. For the molecule `Cc1nc2ccc(Cl)cc2c2c1CCN2c1ccccc1`, the GI50 is inactive: 15 µM. For the molecule `C=C1C(=O)OC2CC1CCC1(C)OC1CCC(C)=CCCC2(C)O` (configuration not stated), the GI50 is inactive: 9.16 µM. On to `N#Cc1c2c(c(Nc3cccc(C(F)(F)F)c3)n3c1nc1ccccc13)CCCC2`, for which the GI50 is inactive: 14.6 µM. Regarding `Cn1c(=O)oc2cc(C(=S)N3CCCCC3)ccc21`, the GI50 was inactive: > 100 µM. The value for `COc1ccc2nc3cc(Cl)ccc3c(Sc3ccc(NC(C)=O)cc3)c2c1` was inactive: > 38.1 µM; that for `CO/N=C(/C)c1cccc(Nc2nc3ccc(Cl)cc3c3[nH]c4ccccc4c23)c1` was inactive: 3.22 µM; that for `Cc1ccc([N+](=O)[O-])cc1S(=O)(=O)Nc1ccc(C2=NOC(c3cccs3)C2)cc1` (configuration not stated) was inactive: 24.3 µM. Consider `Cc1cn(C2CC(O)C(COC(=O)NCCC(F)(F)C(F)(F)C(F)(F)C(F)(F)F)O2)c(=O)[nH]c1=O` (configuration not stated), for which the GI50 was inactive: > 100 µM. Regarding `CC(=O)/C(=C\c1ccc(Cl)c(Cl)c1)C(=O)C(C)CN(C)C` (configuration not stated), the GI50 is inactive: 4.48 µM.

With `CN(C)CCCSc1nc2ccccc2[nH]1`, the GI50 is inactive: > 100 µM. As to `COC1C(=O)N(SC)C1c1ccccc1Cl` (configuration not stated), the GI50 is inactive: > 100 µM.

Turning to `O=C1C(=Cc2cccc(Cl)c2)N=C(c2ccccc2)N1n1c(-c2ccccc2)nc2ccccc2c1=O`, the GI50 is inactive: 44.8 µM. For the molecule `COC(=O)/C(=C1\OC(=O)C(c2ccc(Cl)cc2)=C1O)c1ccc(Cl)cc1`, the GI50 is inactive: 31.8 µM.

Take `O=[N+]([O-])C1=Cc2c(O)ccc(O)c2C2OC=CC12` (configuration not stated): the GI50 is inactive: 28.1 µM. `Clc1ccc(C2NN=C3c4ccccc4OCC32)cc1` (configuration not stated): the GI50 is inactive: 6.05 µM.

For the molecule `COc1cc(NC(C)=O)ccc1C(=O)NN1C(=O)/C(=C/c2ccco2)N=C1c1ccccc1`, the GI50 is inactive: > 50 µM. On to `Nc1nc(Cl)c2ncn(Cc3ccc(CCl)cc3)c2n1`, for which the GI50 was inactive: 21.2 µM. For the molecule `CCOC(=O)C(=O)Nc1ccc(C)c(C)c1`, the GI50 is inactive: > 100 µM.

Turning to `O=C1/C(=C/c2ccccc2S)N=C(c2ccccc2)N1c1ccc2c(c1)Sc1cc(N3C(=O)/C(=C/c4ccccc4S)N=C3c3ccccc3)ccc1N2`, the GI50 is inactive: 17.9 µM. Consider `COC(=O)c1nc(N)nc(O)c1-c1ccc(Cl)cc1`, for which the GI50 was inactive: > 100 µM. In the case of `CS(=O)(=O)OCCN(CCOS(C)(=O)=O)c1ccc(/C=N/c2cccc(Cl)c2)cc1`, the GI50 is inactive: 13.5 µM. Regarding `C=C1C(=O)OC2/C=C(CO)/C=C\C3OC3(C)CC(OC(=O)/C(C)=C/COC(C)=O)C12` (configuration not stated), the GI50 is inactive: 14.9 µM.

Regarding `Cc1cc(C)nc(NS(=O)(=O)c2ccc(Nc3c4ccccc4nc4c(C(=O)NNCCO)cccc34)cc2)n1`, the GI50 is inactive: > 100 µM. Consider `CSC(C1c2ccccc2N(c2ccc(C)cc2)c2[nH]c(=O)n(C)c(=O)c21)S(=O)(=O)c1ccc(C)cc1` (configuration not stated), for which the GI50 was inactive: > 100 µM. Turning to `Cc1ccc(C)n1-n1c(-c2ccccc2)n[nH]c1=O`, the GI50 is inactive: > 100 µM. Consider `Cc1cc(CCC(=O)NCCNc2c3ccccc3nc3ccccc23)cc(C)c1O[Si](C)(C)C(C)(C)C`, for which the GI50 was inactive: 1.69 µM. On to `COc1c(NC(C)=O)cc(C)cc1NC(C)=O`, for which the GI50 was inactive: > 100 µM. For `Cc1ccc(S(=O)(=O)N2CCC(=O)c3cc(Br)ccc32)cc1`, the GI50 was inactive: 32.8 µM. The value for `CCOC(=O)C(=O)/C(=C/n1c(=S)[nH]c2ccc([N+](=O)[O-])cc21)C(=O)OCC` was inactive: > 100 µM; that for `CS(=O)(=O)C(=Cc1ccccc1Cl)S(C)(=O)=O` was inactive: > 100 µM. The same measure for `Cc1cccc2c1[nH]c1[nH]c(=O)[nH]c(=O)c12`: inactive: > 100 µM. The value for `O=C(N/N=C\C(F)(F)F)c1ccncc1` was inactive: 37.8 µM. As for `ClCCCCOC1CCCCO1` (configuration not stated), the GI50 was inactive: > 100 µM. Regarding `C=CCCOC(=O)CO[N+](=O)[O-]`, the GI50 is inactive: > 100 µM. For `COC(=O)C1=C(C)N(NC(=O)c2ccccc2)C(C)(O)C12CCOC2=O` (configuration not stated), the GI50 was inactive: > 100 µM. In the case of `CCN(CCCl)c1cc(CN(C)C)cc(NC(=O)c2ccc(C(=O)Nc3ccccc3)cc2)c1`, the GI50 is inactive: 1.48 µM.

On to `C=CCN(c1cc(OCc2ccccc2)c2c(c(C)cn2S(=O)(=O)c2ccc([N+](=O)[O-])cc2)c1[N+](=O)[O-])S(C)(=O)=O`, for which the GI50 was inactive: > 100 µM.

In the case of `CC(=O)OCCC1c2ccccc2-n2nc(-c3ccccc3)c(O)c21` (configuration not stated), the GI50 was inactive: 16.1 µM. The same measure for `CSC(=S)CC(O)[C@@H]1CC2c3ccccc3C1c1ccccc12` (some centres not stated): inactive: 16.7 µM; for `CC(C)(C)OC(=O)/C=C/[C@@H](CCC(=O)/C=C/[C@H](/C=C\CCCC(=O)O)NC1(c2ccccc2)c2ccccc2-c2ccccc21)O[Si](C)(C)C(C)(C)C`: inactive: 18.8 µM. With `Cc1ccccc1NC(=O)C1C(=O)N(c2ccccc2C)C(=O)/C1=N\NC(N)=O` (configuration not stated), the GI50 was inactive: > 100 µM. As for `O=C(Cc1ccccc1)NN1C(=O)/C(=C\c2ccc([N+](=O)[O-])cc2)S/C1=N\c1ccccc1`, the GI50 is inactive: > 100 µM.

Regarding `O=c1c2cc(Br)ccc2ncn1COCc1ccccc1`, the GI50 is inactive: > 100 µM. Take `CCOC(=O)c1ccc(/N=N/N(C)C(=O)C(C)N)cc1` (configuration not stated): the GI50 is inactive: 78.7 µM. The value for `CCN(C(=O)N[C@H](C(=O)N[C@@H](C)C(=O)OC)C(C)C)c1ccccc1` was inactive: > 100 µM; that for `CCOC(=O)c1c2cccccc-2nc1Nc1cccc2c(C)ccnc12` was inactive: > 10 µM. Consider `O=C(NCCCl)Nc1cccnc1`, for which the GI50 was inactive: 19.8 µM. For the molecule `COc1ccc2oc(S(=O)(=O)N3CC(CCl)c4ccc([N+](=O)[O-])cc43)cc2c1` (configuration not stated), the GI50 was active: 0.447 µM. With `CO[C@@H]1C=C[C@@]23c4cc5c(cc4C(O)N(CC2O)C3C1)OCO5` (some centres not stated), the GI50 was inactive: 3.7 µM. For the molecule `COc1ccc(-c2oc3cc(-c4cc5oc(-c6ccc(OC)cc6)c(-c6ccc(OC)cc6)c5cc4OC)c(OC)cc3c2-c2ccc(OC)cc2)cc1`, the GI50 was inactive: > 100 µM. Consider `CCCCSC1CCSc2c1ccc1ccccc21` (configuration not stated), for which the GI50 was inactive: > 100 µM. Take `O=S1(=O)c2ccccc2N(c2ccccc2)c2nnnn21`: the GI50 was inactive: 39.4 µM. As for `OCC1=CC(NC2CC(CO)C(O)C(O)C2O)C(O)C(O)C1O` (configuration not stated), the GI50 is inactive: > 100 µM. For the molecule `Cc1cn(C(=O)NC23CC4CC(CC(C4)C2)C3)c(=O)[nH]c1=O`, the GI50 is inactive: > 100 µM. For `CC(=O)OC1c2ccccc2CC2(OC(C)=O)c3ccccc3C12` (configuration not stated), the GI50 is inactive: > 100 µM. The same measure for `Cc1sc2ncnc(NCCc3ccccc3)c2c1C`: inactive: 13.2 µM. As to `O=C(N/C(=C\c1cc(Cl)ccc1Cl)c1nc2c(O)nc(S)nc2[nH]1)c1ccccc1`, the GI50 was inactive: 39.9 µM. Take `NN/C(=N\S(=O)(=O)c1cc(Cl)c(Oc2ccc([N+](=O)[O-])cc2Cl)c(Cl)c1)Nc1ccc(Cl)cc1`: the GI50 was inactive: 22.9 µM.

Regarding `N#CCC(=O)Nc1ccccc1O`, the GI50 is inactive: > 100 µM.

As for `CCC1=NC(N/N=C/c2ccco2)=N/C1=C\c1ccco1`, the GI50 was inactive: > 100 µM.

For `COc1ccc(C(=O)C/C(=N/NC(N)=S)C(=O)Nc2ccccc2)cc1`, the GI50 is inactive: > 100 µM. With `CC(=O)OCC1OC(n2cnc3c(I)nc(I)nc32)C(OC(C)=O)C1OC(C)=O` (configuration not stated), the GI50 was inactive: 17 µM.

Consider `CC(O[Si](c1ccccc1)(c1ccccc1)C(C)(C)C)[C@H](NC(=O)OC(C)(C)C)C(=O)O[Si](c1ccccc1)(c1ccccc1)C(C)(C)C` (some centres not stated), for which the GI50 was inactive: 12.6 µM. The same measure for `O=C(CCc1cccc(O)c1)NCCc1cccc(O)c1`: inactive: > 100 µM; for `Cc1ccc2c(c1)[n+]([O-])c(N)n[n+]2[O-]`: inactive: > 100 µM.
